Among all 310,000 compounds or so, about 14,000 (4.5%) showed an effect of 50% or more. Effects have a minus sign here. Some of the results follow.
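Further: peak tail current of the secondary pulse compared with the same well before compound.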

In the test the target is human ether-à-go-go-related gene (hERG) potassium channel (human, UniProt Q12809). The test is described as follows: primary screen, population patch clamp on CHO cells stably expressing hERG.
human ether-à-go-go-related gene (hERG) potassium channel, sequence (Q12809 whole entry, looked up): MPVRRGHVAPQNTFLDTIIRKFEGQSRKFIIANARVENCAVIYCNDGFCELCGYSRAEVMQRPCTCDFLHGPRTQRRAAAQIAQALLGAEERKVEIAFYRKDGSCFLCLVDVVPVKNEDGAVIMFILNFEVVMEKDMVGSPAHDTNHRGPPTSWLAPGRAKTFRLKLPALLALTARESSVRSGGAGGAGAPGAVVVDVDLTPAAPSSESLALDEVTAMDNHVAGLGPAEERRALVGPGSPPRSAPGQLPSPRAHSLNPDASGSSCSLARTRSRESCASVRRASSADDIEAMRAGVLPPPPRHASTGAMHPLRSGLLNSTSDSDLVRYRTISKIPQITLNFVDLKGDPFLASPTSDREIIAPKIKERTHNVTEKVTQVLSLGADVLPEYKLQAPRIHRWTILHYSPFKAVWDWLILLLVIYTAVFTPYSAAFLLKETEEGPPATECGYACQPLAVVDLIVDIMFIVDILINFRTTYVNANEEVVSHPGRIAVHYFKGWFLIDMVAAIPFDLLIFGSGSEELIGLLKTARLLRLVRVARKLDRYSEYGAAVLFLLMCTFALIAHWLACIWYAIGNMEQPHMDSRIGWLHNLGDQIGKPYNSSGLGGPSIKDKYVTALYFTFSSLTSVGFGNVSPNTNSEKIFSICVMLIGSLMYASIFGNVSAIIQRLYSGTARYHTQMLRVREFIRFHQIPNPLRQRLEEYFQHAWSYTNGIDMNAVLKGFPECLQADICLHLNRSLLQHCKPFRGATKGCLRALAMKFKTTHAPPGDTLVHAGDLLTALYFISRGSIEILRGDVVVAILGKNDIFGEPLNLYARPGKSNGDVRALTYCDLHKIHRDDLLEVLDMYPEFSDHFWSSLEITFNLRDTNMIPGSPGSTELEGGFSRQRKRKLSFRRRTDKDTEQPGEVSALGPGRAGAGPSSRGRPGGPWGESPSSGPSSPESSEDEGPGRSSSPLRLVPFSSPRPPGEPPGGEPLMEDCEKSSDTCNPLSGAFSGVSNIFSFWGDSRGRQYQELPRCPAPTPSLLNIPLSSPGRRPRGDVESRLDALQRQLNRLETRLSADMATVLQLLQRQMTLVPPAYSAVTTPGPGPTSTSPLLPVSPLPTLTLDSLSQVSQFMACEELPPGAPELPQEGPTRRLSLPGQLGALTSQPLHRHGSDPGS
Take `COc1cc(C(=O)N2CCC(O)(c3ccccc3)CC2)cc(OC)c1OC`: the “hERG current change (%, negative = inhibition) at 10uM” value is on record as 14.7%.
In the case of `COc1cccc(C(=O)Nc2ccc(S(=O)(=O)Nc3nccc(C)n3)cc2)c1` it was 17.9%; in that of `COc1cccc(/C=N\NC(=O)c2ccc(C)nc2)c1`, 8.82%; in that of `CCn1cc(S(=O)(=O)CC(=O)Nc2cccc(C)c2)c2ccccc21`, 5.19%.
Take `O=c1[nH]c(/C=C\c2ccc(O)c(O)c2)nc(O)c1[N+](=O)[O-]`: the “hERG current change (%, negative = inhibition) at 10uM” value was determined as 16.2%.
Take `Cc1ccc(O)c(C(=O)c2cnc3c(c2)CN(CCC(C)C)C(=O)N3)c1`: the “hERG current change (%, negative = inhibition) at 10uM” value stood at 14.8%.
With `Oc1ccc(-n2nnnc2SCc2c(F)cccc2Cl)cc1` the figure was -1.27%; with `O=C(NCc1ccccc1F)c1ccc(S(=O)(=O)N2CCCCCC2)cc1`, -22.4%; with `Cc1nn2c(NCC(C)C)c3c(nc2c1-c1ccccc1)CCC3`, 4.8%.
In the case of `Cn1c(CNS(=O)(=O)c2ccc(Cl)cc2)cc(=O)n(C)c1=O` it was 13%; in that of `CC1CCN(S(=O)(=O)c2nnc(NC(=O)COc3ccccc3F)s2)CC1`, -7.13%; in that of `Cc1cc(C)c2c(CC(=O)NC3CCS(=O)(=O)C3)coc2c1` (stereo not drawn), 16.5%.
With `CC1CCCCN1C(=O)COC(=O)CNC(=O)c1ccc(Cl)cc1Cl` (stereo not drawn) the figure was 1.62%.
On to `COc1ccccc1Nc1nnc(SCC(=O)c2cc(C)n(CC3CCCO3)c2C)s1` (stereo not drawn), for which the “hERG current change (%, negative = inhibition) at 10uM” value was -7.74%.
In the case of `COC(=O)C1=C(N)OC2=C(C(=O)CCC2)C1c1ccccc1OC` (stereo not drawn) it was -0.702%; in that of `COc1ccc(N(CC(=O)NCCc2ccc(C)cc2)S(=O)(=O)c2c(C)noc2C)cc1`, -25.9%; in that of `Clc1ccc(OCc2nc(-c3ccncc3)no2)c(Cl)c1`, -17.3%.
In the case of `COc1cc(/C=C/c2noc(-c3ccccc3O)n2)ccc1OC(C)=O` it was 9.4%.
As to `CCOC(=O)c1ccc(NCCOC)c([N+](=O)[O-])c1`, the “hERG current change (%, negative = inhibition) at 10uM” value is -0.772%.
With `Cc1ccc(Cn2c(=N)c(C#N)cc3c(=O)n4cccc(C)c4nc32)cc1` the figure was -13%.
For `COC(=O)c1nnn(CC(=O)Nc2cccc(OC)c2)c1C(=O)OC`, the “hERG current change (%, negative = inhibition) at 10uM” value is recorded as 21.9%.
With `Cc1ccc(/C=N/NC(=O)c2ccc(NC(=O)c3ccc(Cl)cc3)cc2)o1` the figure was 22.9%; with `CCOC(=O)N1CCN(C(=O)c2ccc3c(=O)n(Cc4ccc(Cl)cc4)c(=S)[nH]c3c2)CC1`, 4.36%.
For `COc1ccc(OC)c(NC(=O)Cc2c(C(=O)O)n(C)c3ccccc23)c1`, the “hERG current change (%, negative = inhibition) at 10uM” value is given as 7.75%.
With `COCCNC(=O)c1c[nH]c2ccc(S(=O)(=O)N3CCc4ccccc43)cc2c1=O` the figure was 6.11%; with `COc1cc(OC)cc(C(=O)NCC(=O)OCC(=O)Nc2ccc3c(c2)OCO3)c1`, -2.91%; with `Cc1ccc(C)c(Oc2cc(NN3CCCCC3)c([N+](=O)[O-])cc2[N+](=O)[O-])c1`, 10.6%.
In the case of `O=C(O)CCN1Cc2ccccc2C1=O` it was 16.3%; in that of `c1ccc2sc(NCC3CCCO3)nc2c1` (stereo not drawn), 28.8%.
In the case of `CSc1ccc(CNc2ccc(C)c(C)c2)cc1` it was 2.27%; in that of `COc1ccccc1N(C)S(=O)(=O)c1ccc(C(=O)Nc2ccncc2)cc1`, -28.6%; in that of `Cc1cc(C)c(C)c(S(=O)(=O)N2CCN(c3ccc(O)cc3)CC2)c1C`, 21%.
With `O=c1[nH]c2ccccc2c(O)c1O`, the “hERG current change (%, negative = inhibition) at 10uM” value came out at 10.9%.
In the case of `CCn1c(SCC(=O)Nc2ccccc2)nc2c1c(=O)n(C)c(=O)n2C` it was -9.42%.
On to `C/C(=N\NC(=O)NC1CCCCC1)c1ccc(OC(F)F)cc1OC(F)F`, for which the “hERG current change (%, negative = inhibition) at 10uM” value stood at 23.4%.
With `COc1ccc(S(=O)(=O)N2c3ccccc3OCC2C(C)(C)C)cc1` (stereo not drawn) the figure was 18.8%; with `O=C(C1CC1)N1N=C(C2CCCCC2)CC1(O)C(F)(F)F` (stereo not drawn), -31.9%; with `Cc1c(C(=O)O)oc2c1/C(=N\O)CC(C)(C)C2`, -4.22%.
In the case of `O=C(CN(C(=O)CNC(=O)c1cccs1)c1ccc(F)cc1)NC1CCCC1` it was 10.4%; in that of `Cc1sc2c(c1C)C(=O)/C(=C\Nc1ccccn1)S(=O)(=O)N2C`, 13%; in that of `Cc1nn(-c2ccccc2)c2sc(C(=O)N3CCCCC3)cc12`, -4.52%.
In the case of `CC1Cc2ccccc2N1C(=S)Nc1ccc(S(N)(=O)=O)cc1` (stereo not drawn) it was 6.85%; in that of `Cc1c(NC(=O)CNCc2ccc3c(c2)OCO3)c(=O)n(-c2ccccc2)n1C.O=C(O)C(=O)O`, 1.24%; in that of `Cc1ccc(/C=N/N=C2/NC(=O)C(CC(=O)N3CCOCC3)S2)cc1` (stereo not drawn), 11%.
Take `Cn1cccc1/C=N/NC(=O)Cn1cnc2ccccc21`: the “hERG current change (%, negative = inhibition) at 10uM” value is on record as -9.89%.
In the case of `O=C(O)c1cccc(S(=O)(=O)N2CCOCC2)c1` it was 2.52%; in that of `COC(=O)c1ccc(-c2noc(CN(Cc3ccccn3)CC3CCCO3)n2)cc1` (stereo not drawn), -75%; in that of `Cn1nnc(NC(=O)C(c2ccccc2)c2ccccc2)n1`, 8.03%.
In the case of `CC(=O)N1[C@H](Cc2ccccc2)C=C[C@]1(C)C(=O)NCCc1c[nH]c2ccccc12`, the “hERG current change (%, negative = inhibition) at 10uM” value is reported as -7.5%.
`O=C(COC(=O)c1ccccc1Nc1ccc(SC(F)F)cc1)NC1CC1`: the “hERG current change (%, negative = inhibition) at 10uM” value was -19.4%.
In the case of `Cn1c(COc2ccccc2)nnc1SCC(=O)NCc1ccccc1` it was -21.4%; in that of `COc1ccc(CN(Cc2ccc(C(=O)O)cc2)C(=S)Nc2ccccc2Cl)cc1OC`, 9.81%; in that of `COc1cc(S(=O)(=O)NC2CCCCC2C)ccc1-n1cnnn1` (stereo not drawn), -7.98%.
With `O=C(N/C(=C\c1ccc(Br)cc1)C(=O)N1CCCC1)c1cccs1` the figure was -27.7%.
`O=C(NC1CCCCC1)C1CCC(=O)N(Cc2cccc(C(F)(F)F)c2)C1` (stereo not drawn): the “hERG current change (%, negative = inhibition) at 10uM” value was 5.98%.
Turning to `N#C/C(=C1/CCCCCN1)c1nnc2n1CCCCC2`, the “hERG current change (%, negative = inhibition) at 10uM” value is recorded as 16.8%.
In the case of `COCCN(C(=O)c1cccc(-n2cnnn2)c1)c1c(N)n(CC(C)C)c(=O)[nH]c1=O`, the “hERG current change (%, negative = inhibition) at 10uM” value was 2.86%.

For the origin of these results see paper PMC4336329 (PLoS ONE, 2015).
